# Test results reported in the supplement of paper PMC8728848.
# The other results are listed elsewhere or left out.
# B1: Epa15 (Candida glabrata) (protein)
# chain: MGSSHHHHHHSSGLVPRGSHMASDPTTFPLGCSPEFTKTKKGLSMELYRYDYLPPGSYPCWDSAYLNPSYPRTGYKAKKLIATVDGVSGDINFKFNPKFGCKAIPDYLPSNFNYHEPITITNFTMILYGYFMPKTTAFHTFYVTADDLLFMNFGAGNAFDCCRREETADKFGNYAAYSVWGKKSLKNELTVYLHTGVYYPIRLFYNNRDYIAQLDIRFKTEHSNAIITNFTDYFYSVDDSSLGCPGLI
# How the values were obtained:
# Test in all cases: glycan array binding signal (z-score within array); higher = stronger binding
# Conditions in all cases: glycan notation: IUPAC condensed, linker removed
# [1] = target: Kdn(a2-3)Gal(b1-4)[Fuc(a1-3)]GlcNAc
# Procedure, shortened: (§1)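 Negative Z-scores can be read as non-binding. The Z-score is calculated within each array and then averaged across arrays of one protein sequence at different concentrations or buffers and across linkers. Arrays, 3228 in all, were curated from the Consortium for Functional Glycomics database and kept only where the protein sequence was available.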
# Kdn(a2-6)Gal(b1-4)GlcNAc = target: Kdn(a2-6)Gal(b1-4)GlcNAc
# Procedure, shortened: as §1
# [2] = target: Man(a1-2)Man(a1-2)Man(a1-3)Man
# Procedure, shortened: as §1
# [3] = target: Man(a1-2)Man(a1-2)Man(a1-3)[Man(a1-2)Man(a1-3)[Man(a1-2)Man(a1-6)]Man(a1-6)]Man(b1-4)GlcNAc(b1-4)GlcNAc
# Procedure, shortened: as §1
# [4] = target: Man(a1-2)Man(a1-2)Man(a1-3)[Man(a1-2)Man(a1-6)[Man(a1-3)]Man(a1-6)]Man(b1-4)GlcNAc(b1-4)GlcNAc
# Procedure, shortened: as §1
# [5] = target: Man(a1-2)Man(a1-2)Man(a1-6)[Man(a1-3)]Man
# Procedure, shortened: as §1
# Man(a1-2)Man(a1-3)Man = target: Man(a1-2)Man(a1-3)Man
# Procedure, shortened: as §1
# [6] = target: Man(a1-2)Man(a1-3)[Man(a1-2)Man(a1-6)]Man
# Procedure, shortened: as §1
# [7] = target: Man(a1-2)Man(a1-3)[Man(a1-2)Man(a1-6)]Man(a1-6)[Man(a1-2)Man(a1-2)Man(a1-3)]Man
# Procedure, shortened: as §1
# [8] = target: Man(a1-2)Man(a1-3)[Man(a1-2)Man(a1-6)]Man(a1-6)[Man(a1-2)Man(a1-2)Man(a1-3)]Man(b1-4)GlcNAc(b1-4)GlcNAc
# Procedure, shortened: as §1
# [9] = target: Man(a1-2)Man(a1-3)[Man(a1-3)[Man(a1-6)]Man(a1-6)]Man(b1-4)GlcNAc(b1-4)GlcNAc
# Procedure, shortened: as §1
# [10] = target: Man(a1-2)Man(a1-3)[Man(a1-6)]Man(a1-6)[Man(a1-2)Man(a1-3)]Man(b1-4)GlcNAc(b1-4)GlcNAc
# Procedure, shortened: as §1
# [11] = target: Man(a1-2)Man(a1-6)[Man(a1-3)]Man(a1-6)[Man(a1-2)Man(a1-2)Man(a1-3)]Man
# Procedure, shortened: as §1
# [12] = target: Man(a1-2)Man(a1-6)[Man(a1-3)]Man(a1-6)[Man(a1-2)Man(a1-2)Man(a1-3)]Man(b1-4)GlcNAc(b1-4)GlcNAc
# Procedure, shortened: as §1
# Man(a1-3)[Man(a1-6)]Man = target: Man(a1-3)[Man(a1-6)]Man
# Procedure, shortened: as §1
# [13] = target: Man(a1-3)[Man(a1-6)]Man(a1-6)[Man(a1-2)Man(a1-3)]Man(b1-4)GlcNAc(b1-4)GlcNAc
# Procedure, shortened: as §1
# [14] = target: Man(a1-3)[Man(a1-6)]Man(a1-6)[Man(a1-3)]Man
# Procedure, shortened: as §1
# [15] = target: Man(a1-3)[Man(a1-6)]Man(a1-6)[Man(a1-3)]Man(b1-4)GlcNAc(b1-4)GlcNAc
# Procedure, shortened: as §1
# [16] = target: Man(a1-3)[Man(a1-6)]Man(b1-4)GlcNAc(b1-4)GlcNAc
# Procedure, shortened: as §1
# [17] = target: Man(a1-3)[Man(a1-6)]Man(b1-4)GlcNAc(b1-4)[Fuc(a1-6)]GlcNAc
# Procedure, shortened: as §1
# Man(a1-6)Man = target: Man(a1-6)Man
# Procedure, shortened: as §1
# Man(b1-4)GlcNAc = target: Man(b1-4)GlcNAc
# Procedure, shortened: as §1
# MurNAc(b1-4)GlcNAc = target: MurNAc(b1-4)GlcNAc
# Procedure, shortened: as §1
# Neu5Ac(a2-3)Gal = target: Neu5Ac(a2-3)Gal
# Procedure, shortened: as §1
# [18] = target: Neu5Ac(a2-3)Gal(b1-3)GalNAc
# Procedure, shortened: as §1
# [19] = target: Neu5Ac(a2-3)Gal(b1-3)GalNAc(b1-3)Gal(a1-4)Gal(b1-4)Glc
# Procedure, shortened: as §1
# [20] = target: Neu5Ac(a2-3)Gal(b1-3)GalNAc(b1-4)Gal(b1-4)Glc
# Procedure, shortened: as §1
# [21] = target: Neu5Ac(a2-3)Gal(b1-3)GalNAc(b1-4)[Neu5Ac(a2-3)]Gal(b1-4)Glc
# Procedure, shortened: as §1
# [22] = target: Neu5Ac(a2-3)Gal(b1-3)GalNAc(b1-4)[Neu5Ac(a2-8)Neu5Ac(a2-3)]Gal(b1-4)Glc
# Procedure, shortened: as §1
# [23] = target: Neu5Ac(a2-3)Gal(b1-3)GalNAc6S
# Procedure, shortened: as §1
# [24] = target: Neu5Ac(a2-3)Gal(b1-3)GlcNAc
# Procedure, shortened: as §1
# [25] = target: Neu5Ac(a2-3)Gal(b1-3)GlcNAc(b1-2)Man
# Procedure, shortened: as §1
# [26] = target: Neu5Ac(a2-3)Gal(b1-3)GlcNAc(b1-2)Man(a1-3)[GlcNAc(b1-4)][Neu5Ac(a2-3)Gal(b1-3)GlcNAc(b1-2)Man(a1-6)]Man(b1-4)GlcNAc(b1-4)GlcNAc
# Procedure, shortened: as §1
# [27] = target: Neu5Ac(a2-3)Gal(b1-3)GlcNAc(b1-2)Man(a1-3)[Neu5Ac(a2-3)Gal(b1-3)GlcNAc(b1-2)Man(a1-6)]Man(b1-4)GlcNAc(b1-4)GlcNAc
# Procedure, shortened: as §1
# [28] = target: Neu5Ac(a2-3)Gal(b1-3)GlcNAc(b1-2)[Neu5Ac(a2-3)Gal(b1-3)GlcNAc(b1-4)]Man(a1-6)[Neu5Ac(a2-3)Gal(b1-3)GlcNAc(b1-2)Man(a1-3)]Man(b1-4)GlcNAc(b1-4)GlcNAc
# Procedure, shortened: as §1
# [29] = target: Neu5Ac(a2-3)Gal(b1-3)GlcNAc(b1-3)Gal(b1-3)GlcNAc
# Procedure, shortened: as §1
# [30] = target: Neu5Ac(a2-3)Gal(b1-3)GlcNAc(b1-3)Gal(b1-4)GlcNAc
# Procedure, shortened: as §1
# [31] = target: Neu5Ac(a2-3)Gal(b1-3)GlcNAc(b1-3)GalNAc
# Procedure, shortened: as §1
binder,measurement,setting,value
B1,glycan array binding signal (z-score),[1],0.252
same,glycan array binding signal (z-score),Kdn(a2-6)Gal(b1-4)GlcNAc,-0.301
same,glycan array binding signal (z-score),[2],-0.485
same,glycan array binding signal (z-score),[3],-0.135
same,glycan array binding signal (z-score),[4],-0.285
same,glycan array binding signal (z-score),[5],-0.411
same,glycan array binding signal (z-score),Man(a1-2)Man(a1-3)Man,-0.462
same,glycan array binding signal (z-score),[6],-0.429
same,glycan array binding signal (z-score),[7],-0.495
same,glycan array binding signal (z-score),[8],-0.458
same,glycan array binding signal (z-score),[9],-0.277
same,glycan array binding signal (z-score),[10],-0.12
same,glycan array binding signal (z-score),[11],-0.637
same,glycan array binding signal (z-score),[12],-0.24
same,glycan array binding signal (z-score),Man(a1-3)[Man(a1-6)]Man,-0.303
same,glycan array binding signal (z-score),[13],0.517
same,glycan array binding signal (z-score),[14],-0.406
same,glycan array binding signal (z-score),[15],-0.333
same,glycan array binding signal (z-score),[16],-0.452
same,glycan array binding signal (z-score),[17],0.402
same,glycan array binding signal (z-score),Man(a1-6)Man,-0.374
same,glycan array binding signal (z-score),Man(b1-4)GlcNAc,-0.32
same,glycan array binding signal (z-score),MurNAc(b1-4)GlcNAc,-0.569
same,glycan array binding signal (z-score),Neu5Ac(a2-3)Gal,-0.522
same,glycan array binding signal (z-score),[18],-0.48
same,glycan array binding signal (z-score),[19],-0.457
same,glycan array binding signal (z-score),[20],-0.484
same,glycan array binding signal (z-score),[21],-0.467
same,glycan array binding signal (z-score),[22],-0.493
same,glycan array binding signal (z-score),[23],-0.387
same,glycan array binding signal (z-score),[24],-0.306
same,glycan array binding signal (z-score),[25],-0.686
same,glycan array binding signal (z-score),[26],0.145
same,glycan array binding signal (z-score),[27],0.415
same,glycan array binding signal (z-score),[28],-0.226
same,glycan array binding signal (z-score),[29],-0.528
same,glycan array binding signal (z-score),[30],-0.404
same,glycan array binding signal (z-score),[31],-0.465
